This is one part of the list.

This experiment concerns the target T1, MBP-FoxP1dN (Mus musculus, UniProt P58462 326-579).
T1 sequence: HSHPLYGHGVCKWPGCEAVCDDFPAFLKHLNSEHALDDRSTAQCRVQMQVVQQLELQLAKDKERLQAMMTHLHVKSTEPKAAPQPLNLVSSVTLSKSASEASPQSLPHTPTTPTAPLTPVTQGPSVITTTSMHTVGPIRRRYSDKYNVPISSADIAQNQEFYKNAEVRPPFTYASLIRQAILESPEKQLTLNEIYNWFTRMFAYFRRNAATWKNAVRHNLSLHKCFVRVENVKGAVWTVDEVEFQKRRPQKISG
The experiment in a line: PD-seq (MBP pull-down with sequencing); 20 mM Tris-HCl pH 7.5, 100 mM NaCl, 1.5 mM MgCl2, 0.4 uM protein, 0.1 uM dsDNA library, 30 min, room temperature, amylose pull-down; high values mean tight binding. Particulars: protein: recombinant; tags: His6-MBP; chain copies: 2; dsDNA, one strand shown. A digest of the protocol: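 Binding is reads-per-million enrichment of pull-down over input, with replicates pooled. It comes from 30 min room-temperature incubation in Tris pH 7.5 buffer with NaCl and MgCl2 of 0.4 µM His6-MBP-tagged, N-terminally truncated mouse FoxP3 or FoxP1 fragment from E. coli with 0.1 µM Klenow-filled degenerate double-stranded DNA library, followed by amylose resin capture, three washes and Illumina sequencing of the released DNA.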
Turning to “GATGATTGTTCTCCCAGCTGATGAATTGTCTTCATCGAGTAAACAAATTTTCCTAATCTTTCTGTTCAAGCGCCATCTAC”, the binding signal was 1.02 RPM ratio (pull-down/input).

“GATGATTGTTCTCCCAGCTGATGAATTTCTGAATTCGAGTAAACAAATTTTCCTAATCTTTCTGTTCAAGCGCCATCTAC”: the binding signal is 0.981 RPM ratio (pull-down/input).

As to “GATGATTGTTCTCCCAGCTGATGAATTTACACACTCGAGTAAACAAATTTTCCTAATCTTTCTGTTCAAGCGCCATCTAC”, the binding signal is 1.34 RPM ratio (pull-down/input).

As to “GATGATTGTTCTCCCAGCTGATGAATTGCATTGCTCGAGTAAACAAATTTTCCTAATCTTTCTGTTCAAGCGCCATCTAC”, the binding signal was 1.25 RPM ratio (pull-down/input). With “GATGATTGTTCTCCCAGCTGATGAATTTGCCCGGTCGAGTAAACAAATTTTCCTAATCTTTCTGTTCAAGCGCCATCTAC” the figure was 0.802 RPM ratio (pull-down/input); with “GATGATTGTTCTCCCAGCTGATGAATTCATTATATCGAGTAAACAAATTTTCCTAATCTTTCTGTTCAAGCGCCATCTAC”, 0.999 RPM ratio (pull-down/input); with “GATGATTGTTCTCCCAGCTGATGAATTTTTCCTCTCGAGTAAACAAATTTTCCTAATCTTTCTGTTCAAGCGCCATCTAC”, 0.972 RPM ratio (pull-down/input).

On to “GATGATTGTTCTCCCAGCTGATGAATTTGCAACCTCGAGTAAACAAATTTTCCTAATCTTTCTGTTCAAGCGCCATCTAC”, for which the binding signal is 1.21 RPM ratio (pull-down/input). As for “GATGATTGTTCTCCCAGCTGATGAATTTATGTCATCGAGTAAACAAATTTTCCTAATCTTTCTGTTCAAGCGCCATCTAC”, the binding signal is 1.53 RPM ratio (pull-down/input).

Consider “GATGATTGTTCTCCCAGCTGATGAATTATGGCATTCGAGTAAACAAATTTTCCTAATCTTTCTGTTCAAGCGCCATCTAC”, for which the binding signal was 1.17 RPM ratio (pull-down/input). For “GATGATTGTTCTCCCAGCTGATGAATTGGTCTAGTCGAGTAAACAAATTTTCCTAATCTTTCTGTTCAAGCGCCATCTAC” the value was 0.943 RPM ratio (pull-down/input). Regarding “GATGATTGTTCTCCCAGCTGATGAATTGGCATTATCGAGTAAACAAATTTTCCTAATCTTTCTGTTCAAGCGCCATCTAC”, the binding signal was 1.15 RPM ratio (pull-down/input). For “GATGATTGTTCTCCCAGCTGATGAATTGTGACAATCGAGTAAACAAATTTTCCTAATCTTTCTGTTCAAGCGCCATCTAC” the value was 1.53 RPM ratio (pull-down/input). For “GATGATTGTTCTCCCAGCTGATGAATTAGGGGTTTCGAGTAAACAAATTTTCCTAATCTTTCTGTTCAAGCGCCATCTAC” the value was 0.83 RPM ratio (pull-down/input).

As for “GATGATTGTTCTCCCAGCTGATGAATTTTCCAAATCGAGTAAACAAATTTTCCTAATCTTTCTGTTCAAGCGCCATCTAC”, the binding signal was 0.999 RPM ratio (pull-down/input).

For “GATGATTGTTCTCCCAGCTGATGAATTGAGAAACTCGAGTAAACAAATTTTCCTAATCTTTCTGTTCAAGCGCCATCTAC”, the binding signal was 0.787 RPM ratio (pull-down/input). For “GATGATTGTTCTCCCAGCTGATGAATTTGGCCATTCGAGTAAACAAATTTTCCTAATCTTTCTGTTCAAGCGCCATCTAC” the value was 0.926 RPM ratio (pull-down/input); for “GATGATTGTTCTCCCAGCTGATGAATTAACCGTTTCGAGTAAACAAATTTTCCTAATCTTTCTGTTCAAGCGCCATCTAC”, 0.98 RPM ratio (pull-down/input). In the case of “GATGATTGTTCTCCCAGCTGATGAATTGTCGCAATCGAGTAAACAAATTTTCCTAATCTTTCTGTTCAAGCGCCATCTAC”, the binding signal was 1.36 RPM ratio (pull-down/input).

For “GATGATTGTTCTCCCAGCTGATGAATTCAGATCCTCGAGTAAACAAATTTTCCTAATCTTTCTGTTCAAGCGCCATCTAC”, the binding signal is 0.737 RPM ratio (pull-down/input). For “GATGATTGTTCTCCCAGCTGATGAATTGCCTCCGTCGAGTAAACAAATTTTCCTAATCTTTCTGTTCAAGCGCCATCTAC” the value was 0.961 RPM ratio (pull-down/input); for “GATGATTGTTCTCCCAGCTGATGAATTCCCTTCGTCGAGTAAACAAATTTTCCTAATCTTTCTGTTCAAGCGCCATCTAC”, 0.827 RPM ratio (pull-down/input); for “GATGATTGTTCTCCCAGCTGATGAATTCGTCGTATCGAGTAAACAAATTTTCCTAATCTTTCTGTTCAAGCGCCATCTAC”, 0.972 RPM ratio (pull-down/input).

“GATGATTGTTCTCCCAGCTGATGAATTTGGTGTTTCGAGTAAACAAATTTTCCTAATCTTTCTGTTCAAGCGCCATCTAC”: the binding signal was 1.12 RPM ratio (pull-down/input). For “GATGATTGTTCTCCCAGCTGATGAATTTATAAGTTCGAGTAAACAAATTTTCCTAATCTTTCTGTTCAAGCGCCATCTAC” the value was 1.06 RPM ratio (pull-down/input). Take “GATGATTGTTCTCCCAGCTGATGAATTTGGCCGCTCGAGTAAACAAATTTTCCTAATCTTTCTGTTCAAGCGCCATCTAC”: the binding signal is 0.845 RPM ratio (pull-down/input). With “GATGATTGTTCTCCCAGCTGATGAATTACGCATCTCGAGTAAACAAATTTTCCTAATCTTTCTGTTCAAGCGCCATCTAC” the figure was 1.27 RPM ratio (pull-down/input). In the case of “GATGATTGTTCTCCCAGCTGATGAATTGCCCAGCTCGAGTAAACAAATTTTCCTAATCTTTCTGTTCAAGCGCCATCTAC”, the binding signal was 0.857 RPM ratio (pull-down/input). With “GATGATTGTTCTCCCAGCTGATGAATTGTCCAGTTCGAGTAAACAAATTTTCCTAATCTTTCTGTTCAAGCGCCATCTAC” the figure was 0.931 RPM ratio (pull-down/input). As to “GATGATTGTTCTCCCAGCTGATGAATTGGCCCGCTCGAGTAAACAAATTTTCCTAATCTTTCTGTTCAAGCGCCATCTAC”, the binding signal is 0.764 RPM ratio (pull-down/input).

For “GATGATTGTTCTCCCAGCTGATGAATTAGTTTCCTCGAGTAAACAAATTTTCCTAATCTTTCTGTTCAAGCGCCATCTAC”, the binding signal is 0.939 RPM ratio (pull-down/input).
